The campaign covered roughly 420,000 compounds. About 50,000 (12%) were called active. The inconclusive results got no clear call from the source; some entries with a clear call stand among them for comparison. The call rests on the fitted dose curve; in most records, active means well fitted inhibition curve with a large enough effect; inconclusive means small, poorly fitted or top-dose-only effect; inactive means flat fitted curve, though single readings scatter. Potencies of inconclusive entries are left out as doubtful fits.
Assay: qHTS for Inhibitors of human tyrosyl-DNA phosphodiesterase 1 (TDP1): qHTS in cells in presence of CPT; further: nearly all actives have a fitted effect of over 55% in size
Settings: chicken DT40 Tdp1-/-;hTDP1 cells + 20 nM CPT, ATP luminescence, 48 h; activity change, negative = growth inhibition: at 46.2 µM (top of the series)
In short: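 Cell growth measured by CellTiter-Glo luminescence after a minimum 48 h, 37 C compound exposure with 20 nM CPT in Tdp1-knockout DT40 cells stably expressing hTDP1, seeded 400/well; qHTS titration format.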
On the % scale 0 is the no-effect control and ±100 the full control effect; potency means the concentration at half of the fitted maximal effect; tags describe the fitted curve by direction and shape.

Structure (SMILES)	Potency	activity change, negative = growth inhibition
Cc1cc(N2CCN(C(=O)c3ccco3)CC2)n2nc(C)c(-c3ccccc3)c2n1	active: 23.1 µM	–
CSCCC(NC(=O)COc1ccccc1)C(=O)OCCOc1ccc(F)cc1 (stereo not given)	inactive	–
CCn1cc(C(=O)NN)c(=O)c2cc(F)c(N3CCOCC3)cc21	inactive	–
Cc1ccc(-n2ncc3c2CCCC3NC(=O)c2ccccc2N2CCOCC2)cc1C (stereo not given)	active: 16.4 µM	–
O=C(CCS(=O)(=O)c1ccc(Br)cc1)Nc1ccc2c(c1)OCO2	–	inconclusive: -31.2% [inhibitor]
CC(C)CSc1nc2c(c(=O)[nH]c(=O)n2C)n1CC(O)COc1cccc2ccccc12 (stereo not given)	inconclusive [inhibitor, single point]	–
Cc1ccc(CN2CCN(Cc3cc4ccccc4o3)CC2CCO)cc1 (stereo not given)	inconclusive [inhibitor, single point]	–
CCOC(=O)N1CCC(NC(=O)c2cnn(-c3cccc(F)c3)c2-n2cccc2)CC1	inconclusive [inhibitor, single point]	–
CCCNC(=O)CN1C(=O)NC2(CCCc3cc(OC)ccc32)C1=O (stereo not given)	inactive	–
Cc1c(Cl)cccc1NC(=O)C1CCCN(c2ncnc3onc(C)c23)C1 (stereo not given)	active: 8.2 µM	–
CCCCOc1ccc(NC2=NC3(CCCCC3)N=C(N)N2)cc1	active: 5.17 µM	–
COc1ccc(CCNC(=O)CN2CCN(c3cccc(C(F)(F)F)c3)CC2)cc1	inconclusive [inhibitor, partial curve]	–
CCC(CO)Oc1cc(NCc2cc(C)cc(C)c2)c2ncn(C(C)C)c2c1 (stereo not given)	inconclusive [inhibitor, single point]	–
CCN(CC(=O)NCCCN1CCOCC1)S(=O)(=O)c1ccc(F)cc1	inactive	–
O=C(CSc1nc(-c2ccco2)cc(C(F)(F)F)n1)Nc1ccc2c(c1)OCO2	inconclusive [inhibitor, single point]	–
CCC(=O)Nc1nnc(-c2ccncc2)s1	inactive	–
O=C(COC(=O)c1ccccc1OCc1ccccc1Cl)NCC1CCCO1 (stereo not given)	inconclusive [inhibitor, single point]	–
O=C(CN1C(=O)COc2ccccc21)N1CCc2ccccc2C1	inconclusive [inhibitor, partial curve, poor fit]	–
CC(=O)c1ccc(NC(=O)COc2ccccc2C(=O)Nc2ccccc2)cc1	active: 11.2 µM	–
O=C(NCc1ccccc1Cl)c1ccc2c(c1)N(Cc1ccccc1)C(=O)CS2	active: 23.1 µM	–
Cc1ccc(NC(=O)C(c2ccccc2)C2CCCC2)cc1 (stereo not given)	inconclusive [inhibitor, single point]	–
CCOC(=O)c1cnc(-c2ccccc2)nc1Oc1ccc(C)cc1	inactive	–
COc1ccc(C(NC(=O)c2cccc(F)c2)c2ccccc2)cc1 (stereo not given)	inconclusive [inhibitor, full curve, poor fit]	–

Structure (SMILES)	Potency	activity change, negative = growth inhibition
O=C(COc1ccc2ccc(=O)oc2c1)N1CCN(c2ccccc2)CC1	inconclusive [inhibitor, partial curve]	–
NS(=O)(=O)c1ccc(CCNc2ncnc3c2cnn3-c2cccc(Cl)c2)cc1	inconclusive [inhibitor, single point]	–
CCOc1ccccc1N(C(=O)c1snc(C(N)=O)c1N)C(CC)C(=O)NC1CCCC1 (stereo not given)	inconclusive [inhibitor, single point]	–
CC(C)CN(C(=O)COC(=O)c1ccc([N+](=O)[O-])s1)c1c(N)n(Cc2ccccc2)c(=O)[nH]c1=O	inconclusive [inhibitor, single point]	–
CCOc1cc(CN2CCC(N3CCC(C(=O)NC4CC4)CC3)CC2)ccc1O	inconclusive [inhibitor, single point]	–
O=c1cc(CSc2ccc(Cl)cc2)nc(N2CCCCC2)[nH]1	inconclusive [inhibitor, single point]	–
N#Cc1ccc(CN2CCCC3(CCNCC3)C2)cc1	inconclusive [inhibitor, single point]	–
CCCCc1c(C)nc2ccc(Br)cc2c1SC(N)N	inactive	–
CCC(C)c1ccccc1NC(=O)CN(C)CCOc1ccc(Cl)cc1 (stereo not given)	inconclusive [inhibitor, single point]	–
COc1ccc(CNC(=O)C2(CC3CC(c4ccccc4)=NO3)CCNCC2)cc1 (stereo not given)	inconclusive [inhibitor, single point]	–
CC(NC(=S)Nc1ccc(OC(F)F)cc1OC(F)F)C(C)(C)C (stereo not given)	inconclusive [inhibitor, single point]	–
Cn1c(=O)c2c(nc(CCc3ccccc3)n2C)n(C)c1=O	inactive	–
Cc1ccc(Cl)cc1N1CCN(C(=O)c2ccc3c(c2)CCN3S(=O)(=O)c2ccccc2)CC1	active: 9.2 µM	–
Cc1ccc(-c2nnc(Nc3cccc(O)c3)c3ccccc23)cc1S(=O)(=O)NCC1CCCO1 (stereo not given)	inconclusive [inhibitor, single point]	–
CC1CCN(S(=O)(=O)c2ccc3c(c2)c(=O)c(C(=O)NC(C)c2ccccc2)cn3C)CC1 (stereo not given)	inconclusive [inhibitor, single point]	–
CC(=O)N1CCN(Cc2nc(-c3cccc(Cl)c3)no2)CC1	inconclusive [inhibitor, partial curve]	–
CCN1C(=O)c2cccc3c(S(=O)(=O)NCc4ccccc4)ccc1c23	inconclusive [inhibitor, single point]	–
CCCCCOC(=O)Nc1nnc(CCCCC)s1	inconclusive [inhibitor, single point]	–
COc1ccc(CCC(=O)NCc2nc3cccnc3n2Cc2ccc(F)cc2)cc1	–	inconclusive: -33.8% [inhibitor]
COc1ccccc1N1CC(C)(C)C(=O)N(C(=O)c2c(F)cccc2Cl)C1=S	inactive	–
Cc1nc2ccccc2c(=O)n1CCc1ccc(O)cc1	inactive	–
Cc1noc(C)c1C(=O)OCC(=O)NC(=O)c1ccc(C(C)(C)C)cc1	inconclusive [inhibitor, single point]	–
